Experimental data published in the supplement of paper PMC6089552.
In all, about 3,200 compounds went through this assay and about 300 (9.4%) showed activity. This is a selection; strong and weak results do not stand in their true shares.

System: A673/TR/shEF
Assay: cell viability (LOESS-normalised, relative to median of negative controls) (log2 ratio); higher = more viable cells (less compound effect), active = hit call of the paper (over 3 MAD below the median)
Settings: treatment time: 72 h
Method in brief: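 A673/TR/shEF Ewing sarcoma cells were plated at 1,500 per well in 384-well plates and cultured with or without doxycycline, added 24 h before compounds, to induce EWS-FLI1 shRNA knockdown. Library compounds at two or more concentrations, alongside DMSO controls, were applied for three days. Cell viability was measured by CellTiter-Glo luminescence on an Envision reader. Readings were LOESS-corrected per plate, divided by the median of negative controls and log2-transformed, and hits were wells lying at least three median absolute deviations from the median of all screened wells.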

[1] = 0.25 µM, library screen: screen1, EWS-FLI1 expression: high (no doxycycline)
[2] = 0.25 µM, library screen: screen1, EWS-FLI1 expression: low (doxycycline-induced shRNA knockdown)
[3] = 2.5 µM, library screen: screen1, EWS-FLI1 expression: high (no doxycycline)
[4] = 2.5 µM, library screen: screen1, EWS-FLI1 expression: low (doxycycline-induced shRNA knockdown)
[5] = 0.25 µM, library screen: screen2, EWS-FLI1 expression: high (no doxycycline)
[6] = 0.25 µM, library screen: screen2, EWS-FLI1 expression: low (doxycycline-induced shRNA knockdown)
[7] = 2.5 µM, library screen: screen2, EWS-FLI1 expression: high (no doxycycline)
[8] = 2.5 µM, library screen: screen2, EWS-FLI1 expression: low (doxycycline-induced shRNA knockdown)

Measured: cell viability (log2)

CC/C(=C(/CC)c1ccc(O)cc1)c1ccc(O)cc1
inactive: [1] 0.0846 | [2] 0.153 | [3] 0.119 | [4] 0.226

CSc1ccc2c(c1)N(CCC1CCCCN1C)c1ccccc1S2 (configuration not stated)
inactive: [1] 0.17 | [2] 0.187 | [5] 0.17 | [6] 0.0177 | [3] 0.192 | [4] 0.257 | [7] 0.0792 | [8] 0.126

CC(C)(Sc1ccc(CCN(CCCCC2CCCCC2)C(=O)NC2CCCCC2)cc1)C(=O)O
inactive: [5] 0.167 | [6] 0.0987 | [7] 0.123 | [8] 0.113

NC1C=CC=C(C(=O)O)C1 (configuration not stated)
inactive: [5] 0.256 | [6] 0.133 | [7] 0.0681 | [8] 0.121

NCCNS(=O)(=O)c1cccc2cnccc12
active: [3] -0.101

Cc1cc(-c2ccccc2)nnc1NCCN1CCOCC1
inactive: [1] 0.136 | [2] 0.0526 | [3] 0.176 | [4] -0.0281

NC(N)=Nc1nc(CSCC/C(N)=N/S(N)(=O)=O)cs1
inactive: [1] 0.105 | [2] 0.028 | [5] 0.192 | [6] 0.0337 | [3] 0.142 | [4] 0.00616 | [7] 0.132 | [8] 0.0149

CCOC(=O)c1sc(C)c2c(=O)n(C3CCCCC3)cnc12
inactive: [1] 0.0769 | [2] 0.0757 | [3] 0.067 | [4] -0.0142

CCN(CC)CCNc1ccc(CO)c2sc3ccccc3c(=O)c12
inactive: [1] 0.107 | [2] 0.129 | [3] 0.0662 | [4] 0.206

O=C(COc1ccc(Cl)cc1)N1CCN(Cc2ccc3c(c2)OCO3)CC1
inactive: [1] 0.0573 | [2] 0.0223 | [3] 0.0872 | [4] 0.144

CN(C)c1ccc(C=C2SC(=S)N(c3ccc(F)cc3)C2=O)cc1
inactive: [1] 0.0645 | [2] 0.154 | [3] 0.09 | [4] 0.192

CN(Cc1cnc2nc(N)nc(N)c2n1)c1ccc(C(=O)N[C@@H](CCC(=O)O)C(=O)O)cc1
inactive: 0.025 µM, library screen: screen2, EWS-FLI1 expression: high (no doxycycline) 0.0134 | 0.025 µM, library screen: screen2, EWS-FLI1 expression: low (doxycycline-induced shRNA knockdown) 0.0597 | 0.103 µM, library screen: screen3, EWS-FLI1 expression: high (no doxycycline) -0.0597 | 0.103 µM, library screen: screen3, EWS-FLI1 expression: low (doxycycline-induced shRNA knockdown) 0.0506 | [6] 0.0894 | 0.308 µM, library screen: screen3, EWS-FLI1 expression: low (doxycycline-induced shRNA knockdown) 0.0568 | 0.926 µM, library screen: screen3, EWS-FLI1 expression: low (doxycycline-induced shRNA knockdown) 0.0108 | [8] 0.0271 | 2.8 µM, library screen: screen3, EWS-FLI1 expression: low (doxycycline-induced shRNA knockdown) 0.0377 | 8.3 µM, library screen: screen3, EWS-FLI1 expression: low (doxycycline-induced shRNA knockdown) 0.0521 | 25 µM, library screen: screen2, EWS-FLI1 expression: low (doxycycline-induced shRNA knockdown) 0.0873 | 25 µM, library screen: screen3, EWS-FLI1 expression: low (doxycycline-induced shRNA knockdown) 0.0291
active: [5] -0.406 | 0.308 µM, library screen: screen3, EWS-FLI1 expression: high (no doxycycline) -0.512 | 0.926 µM, library screen: screen3, EWS-FLI1 expression: high (no doxycycline) -0.53 | [7] -0.754 | 2.8 µM, library screen: screen3, EWS-FLI1 expression: high (no doxycycline) -0.711 | 8.3 µM, library screen: screen3, EWS-FLI1 expression: high (no doxycycline) -0.751 | 25 µM, library screen: screen2, EWS-FLI1 expression: high (no doxycycline) -0.743 | 25 µM, library screen: screen3, EWS-FLI1 expression: high (no doxycycline) -0.797

Cc1ccsc1/C=C/C1=NCCCN1C
inactive: [1] 0.0668 | [2] -0.0137 | [3] 0.0835 | [4] 0.0561

CCN1CCc2nc(N)oc2CC1
inactive: [5] 0.174 | [6] 0.0369 | [7] 0.132 | [8] 0.152

C[N+](C)(C)CCOC(=O)CCC(=O)OCC[N+](C)(C)C
inactive: [5] 0.129 | [6] 0.073 | [7] 0.227 | [8] 0.0265

C=CCn1c(=O)c2c(nc(-c3ccc(S(=O)(=O)O)cc3)n2C)n(C)c1=O
inactive: [5] 0.0888 | [6] 0.107 | [7] 0.0889 | [8] 0.108

COc1cc2c(CCNC(C)=O)c[nH]c2cc1Cl
inactive: [5] 0.187 | [6] 0.118 | [7] 0.168 | [8] 0.0667

COc1cccc(OC)c1C(=O)N[C@@H]1C(=O)N2[C@@H]1SC(C)(C)[C@@H]2C(=O)O
inactive: [1] 0.111 | [2] -0.0241 | [3] 0.148 | [4] 0.041

C/C1=C\CC/C(C)=C/CC(C)(C)/C=C/C1
inactive: [1] 0.0853 | [2] 0.0875 | [3] 0.112 | [4] 0.0862

Cc1ccc(S(=O)(=O)NC(=O)NN2CCCCCC2)cc1
inactive: [1] 0.0935 | [2] 0.0203 | [5] 0.0136 | [6] 0.0575 | [3] 0.116 | [4] 0.119 | [7] 0.189 | [8] 0.00517

CC(C)(C)CC(C)(C)c1ccc(O)c(Cc2ccc(Cl)cc2Cl)c1
inactive: [1] 0.0591 | [2] 0.145 | [3] 0.142 | [4] 0.315

c1coc(CN2CCN(Cc3ccc4ccccc4c3)CC2)c1
inactive: [1] 0.0477 | [2] 0.0071 | [3] 0.142 | [4] 0.0832

COc1ccc(OC)c(CN2CCN(Cc3cc(OC)c(OC)cc3OC)CC2)c1
inactive: [2] 0.113 | [3] 0.0261 | [4] -0.0111
active: [1] -0.103
